Screen size: about 230,000 compounds; about 3,600 (1.6%) were called active. The inconclusive results got no clear call from the source; some entries with a clear call stand among them for comparison. The call rests on the fitted dose curve; in most records, active means well fitted inhibition curve with a large enough effect (not every such curve was filed as active); inconclusive means small, poorly fitted or top-dose-only effect, or another doubt; inactive means no such curve, though single readings can be large or run the other way. Where the call is inconclusive, the potency comes from a doubtful curve fit.
Target: Lysine-specific demethylase 4E (Homo sapiens) (UniProt B2RXH2)
Experiment: qHTS Assay for Inhibitors of Human Jumonji Domain Containing 2E (JMJD2E)
Details: JMJD2E catalytic domain, FDH-coupled NADH fluorescence (FDH is formaldehyde dehydrogenase); series mostly up to 57.1 µM
Further: nearly all actives have a fitted effect of over 50% in size.
Potency means the concentration at half of the fitted maximal effect; tags describe the fitted curve by direction and shape.

UniProt B2RXH2, sequence (B2RXH2 whole entry, looked up, the tested form may be a part): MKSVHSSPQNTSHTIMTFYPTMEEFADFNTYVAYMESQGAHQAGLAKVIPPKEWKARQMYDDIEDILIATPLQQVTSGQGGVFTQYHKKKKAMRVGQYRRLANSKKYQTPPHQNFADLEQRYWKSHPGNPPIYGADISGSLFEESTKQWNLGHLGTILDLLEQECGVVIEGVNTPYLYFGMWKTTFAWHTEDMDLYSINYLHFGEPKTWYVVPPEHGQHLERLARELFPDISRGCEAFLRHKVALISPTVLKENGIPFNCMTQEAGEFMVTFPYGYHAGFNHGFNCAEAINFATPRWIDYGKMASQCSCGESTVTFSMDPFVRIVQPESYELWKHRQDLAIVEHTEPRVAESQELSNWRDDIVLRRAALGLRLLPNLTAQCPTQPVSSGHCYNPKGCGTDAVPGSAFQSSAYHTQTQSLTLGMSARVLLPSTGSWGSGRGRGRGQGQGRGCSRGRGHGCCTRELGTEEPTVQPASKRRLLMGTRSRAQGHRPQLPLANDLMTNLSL

Row | Structure (SMILES) | Potency
1 | O=C(O)c1cccc(S(=O)(=O)Nc2ccc([N+](=O)[O-])cc2O)c1 | inconclusive: 28.2 µM [inhibitor, single point]
2 | CCOc1cc(/C=C2/SC(=S)N(CC(=O)O)C2=O)ccc1OC(=O)c1cccs1 | inactive
3 | COC(=O)Cc1[nH]c(=S)[nH]c1C(=O)OC | inactive
4 | CCOC(=O)c1cnc2c(OC)cccc2c1N1CCN(c2ccccn2)CC1 | inactive
5 | Cc1nc2ccccc2c(=O)n1NC(=O)c1cccc([N+](=O)[O-])c1 | inactive
6 | N#Cc1ccc(COn2nnc3ccccc32)cc1 | inactive
7 | CNc1ncnc(Sc2ccc(Cl)cc2)c1[N+](=O)[O-] | inactive
8 | COc1ccc(NC(=O)Cn2c(=O)n(-c3ccccc3)c(=O)c3oc4ccccc4c32)c(OC)c1 | inconclusive: 8.91 µM [inhibitor, single point]
9 | COc1ccc(C(=O)/C=C/Nc2ccc(S(=O)(=O)Nc3nc(C)cc(C)n3)cc2)cc1OC | inconclusive: 25.1 µM [inhibitor, partial curve]
10 | COc1ccc(/C=C/C(=O)C23CC4CC(CC(C4)C2)C3)cc1CN1CCOCC1 | inactive
11 | CO[C@]12C(COC(N)=O)C3=C(C(=O)C(C)=C(N)C3=O)N1CC1NC12 (some centres not stated) | inconclusive: 22.4 µM [inhibitor, single point]
12 | Cc1cc(C)n(-c2nc(NCc3cccnc3)c3c4c(sc3n2)COC(C)(C)C4)n1 | inconclusive: 28.2 µM [inhibitor, partial curve]
13 | Cc1ccc(NC(=O)CNCc2ccccc2)cc1Br | inconclusive: 31.6 µM [inhibitor, partial curve, poor fit]
14 | N#Cc1c2c(c(N3CCN(CCO)CC3)n3c1nc1ccccc13)CCCC2 | inconclusive: 39.8 µM [inhibitor, single point]
15 | Cc1ccc2cc3cc(C(=O)NCCC(C)C)oc3nc2c1 | inconclusive: 8.91 µM [inhibitor, partial curve]
16 | Cc1cccc(OCc2n[nH]c(=S)n2Cc2ccccc2)c1 | inconclusive: 15.8 µM [inhibitor, partial curve]
17 | COC(=O)N1C2=C(c3ccccc3[C@@H]1CC(=O)Nc1ccc3cc4ccccc4cc3c1)[C@@H]1C(=O)N(c3ccccc3)C(=O)[C@@H]1[C@H](C)C2 | inconclusive: 3.16 µM [inhibitor, partial curve]
18 | CSc1nc(Oc2ccc(F)cc2)c2ccccc2n1 | inconclusive: 39.8 µM [inhibitor, single point]
19 | CC(=O)Nc1nc(-c2ccc(Br)s2)cs1 | inconclusive: 39.8 µM [inhibitor, single point]
20 | O=C(OCCNC(=O)c1ccc2ccccc2n1)c1ccc(F)cc1 | inconclusive: 35.5 µM [inhibitor, partial curve]
21 | O=C(NC(=S)Nc1ccccc1C(=O)O)c1ccc2ccccc2c1 | inconclusive: 25.1 µM [inhibitor, partial curve]
22 | CC(C)OCCCN1CN(S(=O)(=O)c2ccccc2)c2nc3ccccc3nc21 | inconclusive: 28.2 µM [inhibitor, partial curve]
23 | Nc1c(C(=O)NCC2CCCO2)sc(=S)n1-c1ccccc1 (configuration not stated) | inactive
24 | Nc1ccc(-c2nc3ccc([N+](=O)[O-])cc3[nH]2)cc1 | inactive

Row | Structure (SMILES) | Potency
25 | CCOc1ccc(CN2CCCN(C)CC2)cc1 | inconclusive: 39.8 µM [inhibitor, single point]
26 | CCOC(=O)c1[nH]c(C)c(C(=O)N2CCN(c3ccccc3)CC2)c1C | inactive
27 | CCCCOC(=O)c1ccc(NC(=O)CSc2nncn2C)cc1 | inactive
28 | CCCn1c(-c2ccc(F)cc2)nc2c(NCCCCN3CCCC3)nc(C)nc21 | inconclusive: 28.2 µM [inhibitor, partial curve]
29 | N#Cc1c2c(nc(N)c1-c1ccccc1)CCCCC2 | inconclusive: 35.5 µM [inhibitor, single point]
30 | COc1cc(OC)c2ccc(=O)oc2c1C(CC(=O)N1CCOCC1)c1ccc2c(c1)OCO2 (configuration not stated) | inconclusive: 25.1 µM [inhibitor, partial curve]
31 | CC(C)C(=O)Nc1nnc(-c2ccco2)s1 | inconclusive: 35.5 µM [inhibitor, single point]
32 | COC(CNC(=O)C1CCN(C(=O)c2cc3oc(C)cc3n2Cc2c(F)cccc2Cl)CC1)OC | inconclusive: 35.5 µM [inhibitor, single point]
33 | c1ccc(N2CCN(c3nc(-c4cccs4)nc4ccccc34)CC2)cc1 | inconclusive: 28.2 µM [inhibitor, partial curve]
34 | COc1ccc(-c2nnn(CC(=O)NC3CCCc4ccccc43)n2)cc1OC (configuration not stated) | inactive
35 | COC(=O)C(CC(=O)c1cccc(OC)c1)c1ccc(F)cc1 (configuration not stated) | inactive
36 | CCOc1cccc(-c2nnc3sc(COc4ccccc4)nn23)c1 | inconclusive: 39.8 µM [inhibitor, single point]
37 | CC(C)=CCN1CCN(Cc2cnc(C)s2)CC1CCO (configuration not stated) | inconclusive: 25.1 µM [inhibitor, partial curve]
38 | Cc1cc(C)n(CCC(=O)N/N=C/c2ccc(O)cc2O)n1 | active: 14.1 µM
39 | C=CCOC(=O)Nc1c(C(=O)OC)[nH]c2ccc(Cl)cc12 | inconclusive: 31.6 µM [inhibitor, partial curve]
40 | Cc1ccc(N(CCC#N)C(=O)CCl)cc1C | inactive
41 | CC(=O)/C=C(\C)Nc1ccc(-c2cnc(-c3ccccc3)o2)cc1 | inconclusive: 22.4 µM [inhibitor, partial curve]
42 | Cc1cc(C)n2nc(SCc3cc(=O)oc4cc(O)ccc34)nc2n1 | inconclusive: 25.1 µM [inhibitor, single point]
43 | COC(=O)c1ccc(C(=O)O)nc1 | inconclusive: 35.5 µM [inhibitor, single point]
44 | CCc1cc(C(=O)COc2ccccc2F)c(O)cc1O | inactive
45 | CC[n+]1c(C)n(-c2ccccc2)c2ccc(C(=O)OC)cc21 | inconclusive: 14.1 µM [inhibitor, partial curve]
46 | O=[N+]([O-])c1ccccc1NCCNS(=O)(=O)c1ccc(Cl)cc1 | inactive
47 | Cc1ccc(-c2cc(-c3ccccc3)c(C#N)c(N)n2)o1 | inconclusive: 28.2 µM [inhibitor, partial curve]

— PubChem BioAssay AID2147 (National Center for Advancing Translational Sciences (NCATS), 2009)
